In PubChem BioAssay AID493208 (National Center for Advancing Translational Sciences (NCATS), 2011):
Out of some 44,000 compounds screened, about 340 (0.77%) were called active. Inconclusive results (about 5%) are left out. The call rests on the fitted dose curve; in most records, active means well fitted inhibition curve with a large enough effect; inconclusive means small, poorly fitted or top-dose-only effect; inactive means flat fitted curve, though single readings scatter. The list shows a part of the results.

Assay: Acumen qHTS Assay for Inhibitors of the mTORC1 Signaling Pathway in MEF (Tsc2-/-, p53-/-) Cells: Sytravon;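 further: plate controls were DMSO for no effect and rapamycin for full effect; nearly all actives have a fitted effect of over 50% in size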
Conditions: phospho-rpS6 immunofluorescence/PI, 24 h; series mostly up to 38.3 µM; activity change, negative = inhibition: at the top concentration
Outline: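 Plate MEFs (Tsc2-/-, p53-/-, empty vector) in DMEM/10% FBS; after 24 h add compound, incubate 24 h at 37 degree Celsius; fix in PFA/TX-100, block, stain phospho-rpS6 and 10 uM PI; scan at 488 nm; report % positive cells.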

Activity change, negative = inhibition, inactive:
CCc1ccc(CNC(=O)CCCN2C(=O)c3cccnc3Oc3ccc(Cl)cc32)cc1 -5.42%, O=C(COc1ccccc1)Nc1nnc(S(=O)(=O)N2CCCCCC2)s1 -18.9%, Cc1nn2c(=O)cc(COC(=O)C(c3ccccc3)c3ccccc3)nc2s1 -16.3%, COc1ccc(CNC(=O)c2cc3c(=O)[nH]c4ccccc4c3n2C)c(OC)c1 3.1%, Cc1ccc2c(c1)N(C(=O)N1CCC(C(=O)NCc3cccs3)CC1)CC(C)O2 (stereo not given) 1.59%, COc1ccc(CCNC(=O)CCCn2c(=O)c3ccccc3n(CC(=O)Nc3ccc(C)cc3Cl)c2=O)cc1OC -31%, CC(NC(=O)CN1C(=O)COc2ccc(Cl)cc21)c1ccccc1 (stereo not given) -0.11%, Cc1cccc(N(CC(=O)NCCSc2ccc(Cl)cc2)S(C)(=O)=O)c1C 1.81%, Cc1ccc(-c2c(C(=O)N(C)Cc3ccccc3)oc(=O)c3ccccc23)cc1 -9.03%, Cc1ccc(NC(=O)C2CCN(C(=O)c3cnn(-c4ccccc4)c3-n3cccc3)CC2)cc1C -4.03%, O=C(NCC(c1cccnc1)N1CCc2ccccc2C1)C(=O)Nc1ccc(F)cc1F (stereo not given) -11.8%, Cc1cccc(-c2nc(C)c(CCNC(=O)c3cccs3)s2)c1 1.86%, O=C(CN1CCCN(Cc2cccc(F)c2)S1(=O)=O)Nc1ccc2c(c1)OCCO2 0%, CC(C)c1ccc(NC(=O)CCNS(=O)(=O)c2ccc3c(c2)oc(=O)n3C)cc1 -11.4%, C=C(C)Cn1c(SCC(=O)Nc2cccc(C)c2)nc2sc3c(c2c1=O)CCCC3 2.25%, COC(=O)c1nnn(-c2ccc(Cl)cc2)c1C(=O)OC -1.58%, O=C(CCS(=O)(=O)c1nc(-c2ccc3c(c2)OCO3)cc(C(F)(F)F)n1)Nc1ccc(F)cc1F 2.5%, CCS(=O)(=O)c1ncc(Cl)c(C(=O)Nc2c(C(=O)c3ccc(C)cc3)oc3ccccc23)n1 -4.91%, Cc1ccc(-n2ncc(C(=O)N3CCN(C(=O)c4ccco4)CC3)c2C2CCN(C(=O)OC(C)(C)C)CC2)cc1 -3.09%, COc1cccc(-c2cn3c(n2)sc2cc(C(=O)NCCC4=CCCCC4)ccc23)c1 -1.23%, O=C(CSc1oc(-c2ccc(F)cc2)nc1S(=O)(=O)c1ccc(Cl)cc1)c1ccccc1 -5.11%, Cc1cccc(CCNC(=O)c2nn(C)c3c2CSc2ccccc2-3)c1 1.01%, O=C(c1ccc2c(c1)N(Cc1cccc(Cl)c1)C(=O)c1ccccc1S2(=O)=O)N1CCCCCC1 -7.39%, CCOc1ccc(CN(C(=O)c2cc(=O)c3cc(Cl)ccc3o2)C2CCS(=O)(=O)C2)cc1 (stereo not given) -10.2%, CCCCOC(=O)c1c(C)oc2ccc(NS(=O)(=O)c3ccc(F)cc3C)cc12 -2.13%
